Data published in the supplement of paper PMC11166567.
The other results are listed elsewhere or left out.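 Rule for the calls: active = permutation test q below 0.05 after Benjamini-Hochberg correction; inactive = q of 0.05 or more.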

The compounds below were run on U2OS (assay: mean average precision of replicate retrieval against DMSO controls (Cell Painting phenotypic activity) (fraction (0-1)); higher = stronger, more reproducible morphological phenotype distinct from DMSO; extreme values may be limits of the assay). Details: 24 h; 5 µM.
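Note: cosine similarity of well-level aggregated Cell Painting profiles ranks each compound's replicate wells against DMSO wells, four replicate plates, significance from 100,000 rank shuffles.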

Row | SMILES | mean average precision
1 | Nc1cc(C(F)(F)F)c(-c2cc(N3CCOCC3)nc(N3CCOCC3)n2)cn1 | active: 1
2 | Cn1cnc([N+](=O)[O-])c1Sc1ncnc2nc[nH]c12 | active: 0.318
3 | Nc1ncnc2c1c(-c1cnc3[nH]ccc3c1)nn2C1CCCC1 | active: 1

Same assay, conditions: 48 h; 5 µM

Row | SMILES | mean average precision
4 | NC(=NCc1ccccc1)NC(=O)c1nc(Cl)c(N)nc1N | active: 0.781
5 | N#CC[C@H](C1CCCC1)n1cc(-c2ncnc3[nH]ccc23)cn1 | active: 0.544
6 | CN[C@H]1C(=O)N[C@@H]2Cc3ccc(cc3)Oc3cc4cc(c3O[C@@H]3O[C@H](C(=O)O)[C@@H](O)[C@H](O)[C@H]3NC(=O)CCCCCCCCC(C)C)Oc3ccc(cc3Cl)[C@@H](O)[C@@H]3NC(=O)[C@H](NC(=O)[C@@H]4NC(=O)[C@@H](NC2=O)c2cc(cc(O)c2Cl)Oc2cc1ccc2O)c1ccc(O)c(c1)-c1c(O[C@H]2O[C@H](CO)[C@@H](O)[C@H](O)[C@@H]2O)cc(O)cc1[C@@H](C(=O)NCCCN(C)C)NC3=O | inactive: 0.0937
7 | NC(=O)N1CCC(CC(=O)N2CCC([C@H]3c4ncc(Br)cc4CCc4cc(Cl)cc(Br)c43)CC2)CC1 | active: 1
8 | OC[C@H]1O[C@@H](n2cnc3c(NC4CCCC4)ncnc32)[C@H](O)[C@@H]1O | inactive: 0.133
9 | CN1CCc2nc(C(=O)N[C@H]3C[C@H](C(=O)N(C)C)CC[C@@H]3NC(=O)C(=O)Nc3ccc(Cl)cn3)sc2C1 | inactive: 0.166
10 | OC[C@H]1O[C@@H](Oc2cc(O)cc(/C=C/c3ccc(O)cc3)c2)[C@H](O)[C@@H](O)[C@@H]1O | active: 0.669
11 | CC(C)[C@H]1c2ccc(F)cc2CC[C@@]1(CCN(C)CCCc1nc2ccccc2[nH]1)OC(=O)C1CC1 | active: 1
12 | O=C(CCNNC(=O)c1ccncc1)NCc1ccccc1 | inactive: 0.146
13 | O=C(O)CC(O)(CC(=O)O)C(=O)O | inactive: 0.131
14 | CC(NC(=O)CCc1nc2ccccc2c(=O)[nH]1)c1ccccc1 (stereo unspecified) | active: 0.544
15 | COC(=O)C1=C(C)NC(C)=C(C(=O)OC(C)(C)CN(C)CCC(c2ccccc2)c2ccccc2)C1c1cccc([N+](=O)[O-])c1 (stereo unspecified) | active: 0.755
16 | Cc1ccc(C(=O)Nc2ccc(CN3CCN(C)CC3)c(C(F)(F)F)c2)cc1C#Cc1cnc2cccnn12 | active: 1
17 | CCCCC[C@H](O)/C=C/[C@H]1[C@H](O)CC(=O)[C@@H]1C/C=C\CCCC(=O)O | active: 0.716
18 | CCCCC[C@H](O)/C=C/[C@@H]1[C@H]2C/C(=C/CCCC(=O)O)O[C@H]2C[C@H]1O | inactive: 0.0808
19 | CC(=O)N[C@@H](CS)C(=O)O | inactive: 0.345
20 | Cc1cc(-c2nc(-c3ccc(OC(F)(F)F)cc3)no2)nn1Cc1ccnc(N2CCN(C3CC3)CC2)c1 | active: 0.777
21 | O=C(O)CN1C(=O)c2cccc3cccc(c23)C1=O | inactive: 0.283
22 | C=C(NC(=O)C(=C)NC(=O)c1csc(C2=N[C@@H]3c4csc(n4)[C@H]4NC(=O)c5csc(n5)[C@H]([C@](C)(O)[C@@H](C)O)NC(=O)[C@H]5CSC(=N5)/C(=C/C)NC(=O)[C@H]([C@@H](C)O)NC(=O)c5csc(n5)[C@]3(CC2)NC(=O)[C@H](C)NC(=O)C(=C)NC(=O)[C@H](C)NC(=O)[C@H]([C@@H](C)CC)N[C@@H]2C=Cc3c([C@H](C)O)cc(nc3[C@H]2O)C(=O)O[C@@H]4C)n1)C(N)=O | active: 1
23 | CC(C)C(=O)c1c(C(C)C)nn2ccccc12 | active: 0.485
24 | O=C(NCCS(=O)(=O)c1ccc(C(F)(F)F)cn1)c1ccc(Cl)cc1 | active: 0.332
25 | Cc1nc2n(c(=O)c1CCN1CCC(c3noc4cc(F)ccc34)CC1)CCCC2O (stereo unspecified) | inactive: 0.224
26 | C/C=C(/C)C(=O)O[C@H]1C(C)=C[C@]23C(=O)[C@@H](C=C(CO)[C@@H](O)[C@]12O)[C@H]1[C@@H](C[C@H]3C)C1(C)C | active: 1
27 | Cc1cc(Cl)ccc1OCCCC(=O)NO | active: 0.392
28 | NCC(=O)Nc1ccc(-n2nc(C(F)(F)F)cc2-c2ccc3c(ccc4ccccc43)c2)cc1 | active: 1
29 | Cc1ccc(/C=C2\CNC/C(=C\c3ccc(C)cc3)C2=O)cc1 | active: 1
30 | CC(C)(C)n1nc(-c2ccc(Cl)cc2)c2c(N)ncnc21 | active: 1
31 | Cc1c(C)c2c(c(C)c1O)CC[C@@](C)(CCC[C@H](C)CCC[C@H](C)CCCC(C)C)O2 | inactive: 0.184
